The other results are listed elsewhere or left out.
How the values were obtained:
Assay in all cases: glycan array binding signal (z-score within array); higher = stronger binding
Details in all cases: glycan notation: IUPAC condensed, linker removed
Gal(b1-4)GlcNAc(b1-2)Man = target: Gal(b1-4)GlcNAc(b1-2)Man
Procedure, shortened: (§1)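 Columns mapping to the same glycan were averaged after glycan names were converted to IUPAC-condensed notation. The data come from 3228 arrays in the Consortium for Functional Glycomics database, limited to those with an available protein sequence. Binding is reported as a within-array Z-score averaged across arrays of one protein sequence and across linkers.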

[1] = target: Gal(b1-4)GlcNAc(b1-2)Man(a1-3)Man(b1-4)GlcNAc(b1-4)GlcNAc
Procedure, shortened: as §1

[2] = target: Gal(b1-4)GlcNAc(b1-2)Man(a1-3)[Gal(b1-4)GlcNAc(b1-2)Man(a1-6)]Man(b1-4)GlcNAc(b1-4)GlcNAc
Procedure, shortened: as §1

[3] = target: Gal(b1-4)GlcNAc(b1-2)Man(a1-3)[Gal(b1-4)GlcNAc(b1-2)Man(a1-6)]Man(b1-4)GlcNAc(b1-4)[Fuc(a1-6)]GlcNAc
Procedure, shortened: as §1

[4] = target: Gal(b1-4)GlcNAc(b1-2)Man(a1-3)[Gal(b1-4)GlcNAc(b1-2)Man(a1-6)][Gal(b1-4)GlcNAc(b1-4)]Man(b1-4)GlcNAc(b1-4)[Fuc(a1-6)]GlcNAc
Procedure, shortened: as §1

[5] = target: Gal(b1-4)GlcNAc(b1-2)Man(a1-3)[Gal(b1-4)GlcNAc(b1-2)Man(a1-6)][GlcNAc(b1-4)]Man(b1-4)GlcNAc(b1-4)[Fuc(a1-6)]GlcNAc
Procedure, shortened: as §1

[6] = target: Gal(b1-4)GlcNAc(b1-2)Man(a1-3)[Gal(b1-4)GlcNAc(b1-2)][GlcNAc(b1-4)]Man(b1-4)GlcNAc(b1-4)GlcNAc
Procedure, shortened: as §1

[7] = target: Gal(b1-4)GlcNAc(b1-2)Man(a1-3)[GlcNAc(b1-2)Man(a1-6)]Man(b1-4)GlcNAc(b1-4)GlcNAc
Procedure, shortened: as §1

[8] = target: Gal(b1-4)GlcNAc(b1-2)Man(a1-3)[GlcNAc(b1-4)][Gal(b1-4)GlcNAc(b1-2)Man(a1-6)]Man(b1-4)GlcNAc(b1-4)GlcNAc
Procedure, shortened: as §1

[9] = target: Gal(b1-4)GlcNAc(b1-2)Man(a1-3)[Man(a1-6)]Man(b1-4)GlcNAc(b1-4)GlcNAc
Procedure, shortened: as §1

[10] = target: Gal(b1-4)GlcNAc(b1-2)Man(a1-6)Man(b1-4)GlcNAc(b1-4)GlcNAc
Procedure, shortened: as §1

[11] = target: Gal(b1-4)GlcNAc(b1-2)Man(a1-6)[GlcNAc(b1-2)Man(a1-3)]Man(b1-4)GlcNAc(b1-4)GlcNAc
Procedure, shortened: as §1

[12] = target: Gal(b1-4)GlcNAc(b1-2)Man(a1-6)[Man(a1-3)]Man(b1-4)GlcNAc(b1-4)GlcNAc
Procedure, shortened: as §1

[13] = target: Gal(b1-4)GlcNAc(b1-2)[Gal(b1-4)GlcNAc(b1-4)]Man(a1-3)[Gal(b1-4)GlcNAc(b1-2)Man(a1-6)]Man(b1-4)GlcNAc(b1-4)GlcNAc
Procedure, shortened: as §1

[14] = target: Gal(b1-4)GlcNAc(b1-2)[Gal(b1-4)GlcNAc(b1-4)]Man(a1-3)[Gal(b1-4)GlcNAc(b1-2)[Gal(b1-4)GlcNAc(b1-6)]Man(a1-6)]Man(b1-4)GlcNAc(b1-4)GlcNAc
Procedure, shortened: as §1

[15] = target: Gal(b1-4)GlcNAc(b1-2)[Gal(b1-4)GlcNAc(b1-4)]Man(a1-3)[GlcNAc(b1-4)][Gal(b1-4)GlcNAc(b1-2)Man(a1-6)]Man(b1-4)GlcNAc(b1-4)GlcNAc
Procedure, shortened: as §1

[16] = target: Gal(b1-4)GlcNAc(b1-2)[Gal(b1-4)GlcNAc(b1-4)]Man(a1-3)[GlcNAc(b1-4)][Gal(b1-4)GlcNAc(b1-2)[Gal(b1-4)GlcNAc(b1-6)]Man(a1-6)]Man(b1-4)GlcNAc(b1-4)GlcNAc
Procedure, shortened: as §1

[17] = target: Gal(b1-4)GlcNAc(b1-2)[Gal(b1-4)GlcNAc(b1-6)]Man(a1-6)[Gal(b1-4)GlcNAc(b1-2)Man(a1-3)]Man(b1-4)GlcNAc(b1-4)GlcNAc
Procedure, shortened: as §1

[18] = target: Gal(b1-4)GlcNAc(b1-2)[Gal(b1-4)GlcNAc(b1-6)]Man(a1-6)[Gal(b1-4)GlcNAc(b1-2)Man(a1-3)]Man(b1-4)GlcNAc(b1-4)[Fuc(a1-6)]GlcNAc
Procedure, shortened: as §1

[19] = target: Gal(b1-4)GlcNAc(b1-2)[Gal(b1-4)GlcNAc(b1-6)]Man(a1-6)[GlcNAc(b1-4)][Gal(b1-4)GlcNAc(b1-2)Man(a1-3)]Man(b1-4)GlcNAc(b1-4)GlcNAc
Procedure, shortened: as §1

[20] = target: Gal(b1-4)GlcNAc(b1-2)[Gal(b1-4)GlcNAc(b1-6)]Man(a1-6)[GlcNAc(b1-4)][Gal(b1-4)GlcNAc(b1-2)[Gal(b1-4)GlcNAc(b1-4)]Man(a1-3)]Man(b1-4)GlcNAc(b1-4)[Fuc(a1-6)]GlcNAc
Procedure, shortened: as §1

[21] = target: Gal(b1-4)GlcNAc(b1-3)Gal(b1-3)GalNAc
Procedure, shortened: as §1

B1: PA-IL (Pseudomonas aeruginosa), Q05097 (protein)
chain: MAWKGEVLANNEAGQVTSIIYNPGDVITIVAAGWASYGPTQKWGPQGDREHPDQGLICHDAFCGALVMKIGNSGTIPVNTGLFRWVAPNNVQGAITLIYNDVPGTYGNNSGSFSVNIGKDQS
glycan array binding signal (z-score) (Gal(b1-4)GlcNAc(b1-2)Man): -0.216
glycan array binding signal (z-score) [1]: -0.232
glycan array binding signal (z-score) [2]: -0.23
glycan array binding signal (z-score) [3]: -0.228
glycan array binding signal (z-score) [4]: -0.242
glycan array binding signal (z-score) [5]: -0.231
glycan array binding signal (z-score) [6]: -0.226
glycan array binding signal (z-score) [7]: -0.217
glycan array binding signal (z-score) [8]: -0.237
glycan array binding signal (z-score) [9]: -0.228
glycan array binding signal (z-score) [10]: -0.222
glycan array binding signal (z-score) [11]: -0.22
glycan array binding signal (z-score) [12]: -0.237
glycan array binding signal (z-score) [13]: -0.216
glycan array binding signal (z-score) [14]: -0.228
glycan array binding signal (z-score) [15]: -0.234
glycan array binding signal (z-score) [16]: -0.227
glycan array binding signal (z-score) [17]: -0.24
glycan array binding signal (z-score) [18]: -0.237
glycan array binding signal (z-score) [19]: -0.221
glycan array binding signal (z-score) [20]: -0.222
glycan array binding signal (z-score) [21]: -0.241

Source: the supplement of paper PMC8728848
